# Laboratory results published in paper PMC4336329 (PLoS ONE, 2015).
# Hit rate of the full screen: of about 310,000 compounds, about 2,200 (0.71%) showed an effect of 50% or more. The effect is printed as a negative number. This is one part of the list.
# Biological target: human ether-à-go-go-related gene (hERG) potassium channel (human, UniProt Q12809)
# Test: primary screen, population patch clamp on CHO cells stably expressing hERG
# Chain of human ether-à-go-go-related gene (hERG) potassium channel (Q12809 whole entry, looked up): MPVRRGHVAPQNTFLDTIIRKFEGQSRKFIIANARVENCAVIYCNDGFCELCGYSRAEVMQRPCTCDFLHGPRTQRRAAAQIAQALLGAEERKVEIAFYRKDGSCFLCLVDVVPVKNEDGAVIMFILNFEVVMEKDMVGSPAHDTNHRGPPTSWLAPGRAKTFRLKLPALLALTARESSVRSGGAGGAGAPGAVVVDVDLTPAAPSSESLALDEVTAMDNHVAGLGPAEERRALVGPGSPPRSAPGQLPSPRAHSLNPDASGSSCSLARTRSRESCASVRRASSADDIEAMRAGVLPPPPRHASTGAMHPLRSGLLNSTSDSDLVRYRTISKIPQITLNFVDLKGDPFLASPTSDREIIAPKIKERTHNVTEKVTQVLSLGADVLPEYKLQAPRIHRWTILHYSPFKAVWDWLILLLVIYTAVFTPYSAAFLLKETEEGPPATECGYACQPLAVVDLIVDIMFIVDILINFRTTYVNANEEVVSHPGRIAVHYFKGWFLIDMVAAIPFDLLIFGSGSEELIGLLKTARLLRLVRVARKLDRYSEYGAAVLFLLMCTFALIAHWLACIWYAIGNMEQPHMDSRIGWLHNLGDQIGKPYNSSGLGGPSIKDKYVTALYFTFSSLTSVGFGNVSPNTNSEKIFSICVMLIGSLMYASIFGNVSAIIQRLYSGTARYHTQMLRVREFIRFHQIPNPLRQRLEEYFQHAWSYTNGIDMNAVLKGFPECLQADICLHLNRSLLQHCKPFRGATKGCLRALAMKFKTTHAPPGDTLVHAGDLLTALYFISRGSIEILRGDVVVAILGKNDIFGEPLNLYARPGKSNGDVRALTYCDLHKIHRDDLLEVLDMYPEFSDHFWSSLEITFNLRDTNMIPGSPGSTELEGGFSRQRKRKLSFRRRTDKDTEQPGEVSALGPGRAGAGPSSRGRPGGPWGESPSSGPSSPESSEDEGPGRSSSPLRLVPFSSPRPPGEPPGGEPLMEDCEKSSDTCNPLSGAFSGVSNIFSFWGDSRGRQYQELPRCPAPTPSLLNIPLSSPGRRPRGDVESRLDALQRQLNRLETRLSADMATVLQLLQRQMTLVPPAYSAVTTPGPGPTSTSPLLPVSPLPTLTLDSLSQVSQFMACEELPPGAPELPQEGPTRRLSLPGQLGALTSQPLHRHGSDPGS
row,Structure (SMILES),"hERG current change (%, negative = inhibition) at 1uM"
1,O=C(COC(=O)c1cccs1)NCc1cccs1,17.1%
2,CC1(OC(=O)C2CCCC2)C(=O)C=C2C=C3CCCCN3C=C2C1=O (centres unmarked),17.8%
3,COc1ccc(/C=N/Nc2ncnc3sc4c(c23)CCCC4)cc1OC,7.16%
4,COC(=O)c1cn(-c2cccc(C)n2)cn1,11.5%
5,Cc1cc(C)n(C(=O)CNC(=O)c2ccc(Cl)cc2Cl)n1,3.96%
6,CCC1Oc2ccc(C)cc2N(CC(=O)N(Cc2ccncc2)Cc2ccco2)C1=O (centres unmarked),-5.23%
7,COc1cc(/C=N\NC(=O)c2c(C)nc3cc(C)ccn23)ccc1O,10.1%
8,O=C(CN1CCCC1)N1CCCc2ccccc21.O=C(O)C(=O)O,11%
9,O=C(O)CCCC(=O)N1CCOCCOCCOCCOCC1,11.5%
10,COP(=O)(OC)C(Nc1ccccc1)c1ccccc1 (centres unmarked),12.8%
11,C(#CCN1CCOCC1)COCC#Cc1ccccc1.Cl,0.237%
12,O=C(c1ccc2c(c1)OCO2)N1CCN(S(=O)(=O)c2ccc(Br)cc2Cl)CC1,-10.1%
13,CNC(=S)NNC(=O)c1cccc(C(F)(F)F)c1,4.97%
14,COc1ccc(CCNC(=O)/C(C#N)=C/c2cccc(OCc3ccccc3)c2)cc1OC,5.27%
15,O=C(NCCc1ccccc1)C1CCC(CNc2c(N3CCCCC3)c(=O)c2=O)CC1 (centres unmarked),20.4%
16,Cc1cc2ncn(/N=C/c3ccc4c(c3)OCO4)c2cc1C,21.3%
17,C=CCC(C(=O)OC)(C(=O)OC)c1ccc([N+](=O)[O-])cn1,-1.87%
18,S=C(NCc1ccccc1)NCc1ccccc1Cl,9.77%
19,NC(=O)NC(=O)COC(=O)c1cccnc1Nc1ccccc1F,10.1%
20,O=C(O)CCNC(=O)c1ccc(NC(=O)Cc2ccc(Cl)cc2)cc1,15.7%
21,N/C(=N\OC(=O)Nc1ccc(Cl)c(Cl)c1)c1ncc(C(F)(F)F)cc1Cl,6.75%
22,COc1nccnc1NS(=O)(=O)c1ccc(NC(=S)NC(=O)c2ccc(F)cc2)cc1,11.4%
23,COC(=O)C1=CN(c2cc(C)cc(C)c2)C=C(C(=O)OC)C1c1cccc(F)c1,12.9%

row,Structure (SMILES),"hERG current change (%, negative = inhibition) at 1uM"
1,O=C1CC(NNC(=O)c2cccc(F)c2)C(=O)N1 (centres unmarked),12.8%
2,CCc1nnc(NC(=O)CSc2nnc(C3CC3)n2C)s1,4.74%
3,CC(=O)Nc1ccc(S(=O)(=O)NCCC(=O)OC(C)C(=O)c2ccc(C)cc2)cc1 (centres unmarked),7.3%
4,Cc1ccccc1OCC(=O)Nc1ccc2c(c1)C(=O)c1ccccc1C2=O,16.2%
5,CC(=O)Nc1ccc(OCC(O)CN2CCN(S(=O)(=O)c3ccc(NC(C)=O)cc3)CC2)cc1 (centres unmarked),-11.4%
6,O=C(CSc1nc2ccc(Nc3nc(N4CCOCC4)nc(N4CCOCC4)n3)cc2s1)Nc1ccccc1Cl,16.8%
7,COc1cc(NC(=O)COC(=O)c2n[nH]c3ccccc23)c(C)cc1[N+](=O)[O-],10.9%
8,CC(=O)c1ccc(S(=O)(=O)N2Cc3ccccc3CC2C(=O)O)cc1 (centres unmarked),9.24%
9,Cc1ccc(CC(CC(=O)NCCc2ccc3c(c2)OCO3)C(=O)O)cc1 (centres unmarked),0.913%
10,O=C(Nc1cccc(C(=O)N2CCN(c3ccc(F)cc3)CC2)c1)c1ccccc1,-18.4%
11,CCOC(=O)COn1c(=O)c(-c2ccc(Cl)cc2)[n+]([O-])c2ccccc21,11.2%
12,CC1CCN(c2cc(N)c(Cl)cc2[N+](=O)[O-])CC1,7.44%
13,O=C(C1CCC(CNS(=O)(=O)c2cccc3nsnc23)CC1)N1CC=C(c2ccccc2)CC1 (centres unmarked),16.2%
14,Cc1ccc(-c2nnn(C(C)C(=O)N3c4ccccc4CCc4ccccc43)n2)cc1 (centres unmarked),11%
15,O=C(NCC(c1ccco1)N1CCN(c2ccccc2F)CC1)c1ccc2c(c1)OCO2 (centres unmarked),1.86%
16,Cc1ccc(N2C(=O)C(NC(=O)c3c(F)cccc3F)(C(F)(F)F)C3=C2CC(C)(C)CC3=O)cc1 (centres unmarked),10.6%
17,COc1ccc(N/C=C/C(=O)c2ccc(C)cc2)c([N+](=O)[O-])c1,19.7%
18,COc1cccc(NC(=O)NC2CCN(CC(=O)Nc3ccccc3[N+](=O)[O-])CC2)c1,-7.45%
19,CC1=C(C#N)C(Nc2ccc(Cl)cn2)(C(F)(F)F)C(=O)N1 (centres unmarked),1.69%
20,CC(=O)Nc1ccc(NC(=O)CSc2nnc(-c3cc4ccccc4o3)n2C)cc1,4.17%
21,COCCNC(=O)CSc1nc(-c2ccccc2)c(-c2ccccc2)o1,2.54%
22,C[C@H]1CCC2[C@](C)(CO)[C@@H](O)CC[C@]2(C)[C@@]12CCC(CO)(CCO)O2 (some centres unmarked),18.9%
23,Cc1cccc2sc(NC(=O)C3CSC4(C)CCC(=O)N34)nc12 (centres unmarked),3.04%

row,Structure (SMILES),"hERG current change (%, negative = inhibition) at 1uM"
1,CC1CCN(c2ccc(-c3cccc(NC(=O)c4ccco4)c3)nn2)CC1,4.62%
2,CN(C)C1=NCCN1CC1CCCC1,11.5%
3,COCCCNC(=O)c1ccc(S(=O)(=O)c2ccc(Cl)cc2)c(NC(C)=O)c1,10.6%
4,Fc1ccc(N/N=C/c2cccnc2)c(F)c1,13.1%
5,O=C(NC1CC1)c1nc(Cn2cc([N+](=O)[O-])cn2)no1,15.1%
6,COc1ccc(CCNS(=O)(=O)CCNC(=O)c2ccccc2)cc1,10.5%
7,CN1C(=O)/C(=C\c2ccc(N3CCCCCC3)cc2)C(=O)NC1=S,18.9%
8,CC1(C)CCN2CCC(C)(C)c3c(O)ccc1c32.CS(=O)(=O)O,11.4%
9,Cc1ccc(Cl)cc1NC(=S)Nn1cnnc1,8.85%
10,COc1ccc(/C=C2/SC(=S)N(c3ccc(S(=O)(=O)Nc4nccs4)cc3)C2=O)cc1,13.4%
11,Cc1ccc(-c2cnc3c(Cl)c(C)nn3c2)cc1,9.07%
12,CC1CCCC(NC(=S)NC(=O)c2ccccc2Br)C1C (centres unmarked),15.1%
13,COCCNCC1C(Oc2ccc(Cl)cc2)C(=O)N1c1ccccc1C.Cl (centres unmarked),9.38%
14,C=CCn1c(O)c(C2=c3ccccc3=NC2=O)sc1=Nc1ccc(O)cc1,9.95%
15,O=C(NCCN1CCCC(O)C1)c1cc(COc2ccc(F)cc2Cl)on1 (centres unmarked),9.82%
16,CCc1ccc(NC(=O)Cn2nc(C)n3cccc3c2=O)cc1,15.1%
17,CCOc1ccccc1-c1nc(-c2ccc(NC(=O)Cc3ccc(OC)cc3)cc2)no1,14.7%
18,COC(=O)c1cc(=O)nc2sc3ccccc3n12,9.45%
19,Cn1c(=O)c2c(nc(OCc3cccnc3)n2Cc2c(F)cccc2Cl)n(C)c1=O,11.5%
20,NC(=O)[C@@H]1CCNc2c(I)cc([N+](=O)[O-])cc2C(=O)N[C@@H](CCC(=O)O)C(=O)N[C@@H](CO)C(=O)N1,12.9%
21,CCOc1ccc(C(=S)N2CCCC2)cc1OC,13.8%
22,Cc1noc(C(=O)Nc2ccc3c(c2)OCO3)c1Cl,3.02%
23,COC(=O)c1cscc1S(=O)(=O)Cc1ccccc1,12%

row,Structure (SMILES),"hERG current change (%, negative = inhibition) at 1uM"
1,COc1cccc(N=Nc2c(N)[nH][nH]c2=O)c1,9.85%
2,Cc1ccc(NC(=O)c2sccc2SCc2cccc(C(F)(F)F)c2)cc1,16%
3,Cc1ccc(N2C(=O)c3n[nH]c(C)c3C2c2ccco2)cc1 (centres unmarked),-0.0701%
4,CCN(CC)S(=O)(=O)c1ccc(N2CCOCC2)c(NC(=O)COc2ccccc2C#N)c1,-1.84%
5,CCC(CC)c1nc2cc(OC)c(OC)cc2c(=O)o1,14.5%
6,O=C(O)C1CC(=O)N(c2ccc(Br)cc2)C1 (centres unmarked),9%
7,COCCN=C1NN=C(c2ccc(NC(C)=O)cc2)CS1,3%
8,C=CCN(CC(=O)Nc1c(C)cccc1CC)C(=O)SCCC,12.8%
9,COc1ccc(-c2nc(CN3CCC(C(=O)N4CCOCC4)CC3)c(C)o2)cc1C,11.8%
10,CCn1cc(CNC(=O)C2CCC(=O)N(Cc3ccc(Cl)cc3)C2)cn1 (centres unmarked),12.6%
11,Cc1c(C)n(CC(O)CN2C(=O)c3ccccc3S2(=O)=O)c2ccccc12 (centres unmarked),8.88%
12,Cc1cc(NC(=O)c2ccc3c(c2)OCO3)no1,21.3%
13,CCCCN(CCCC)c1nc(OC)nc(-n2nnc(C(C)=O)c2C)n1,-3.57%
14,CC(=O)Oc1cccc(C(=O)Nc2cccc(C(=O)Nc3ccccc3C(=O)O)c2)c1,12.8%
15,Clc1ccc(-c2nnc3ccccn23)cc1,-2.74%
16,CCOc1cc(C(=O)Nc2nnc(S(=O)(=O)N3CCOCC3)s2)cc(OCC)c1OCC,13.9%
17,Cc1nc([N+](=O)[O-])c(Br)n1CC(=O)c1cccc([N+](=O)[O-])c1,-2.8%
18,N#Cc1c(-c2ccccc2)nc(N2CCCCCC2)[nH]c1=O,6.09%
19,N#CCSCC(=O)Nc1ccccc1,6.23%
20,CCN(CC(=O)NCc1ccc(F)cc1)C(=O)CN1CCN(c2cc(Cl)ccc2C)CC1,-68.2%
